According to PubChem BioAssay AID624417 (National Center for Advancing Translational Sciences (NCATS), 2012):
Among all 410,000 compounds or so, about 6,400 (1.6%) were called active. Inconclusive means that the source gave no clear call. Such entries were picked first, then a sample of the others. The call rests on the fitted dose curve; in most records, active means well fitted inhibition curve with a large enough effect; inconclusive means small, poorly fitted or top-dose-only effect; inactive means no such curve, though single readings can be large or run the other way. No potency is given beside an inconclusive call; the fits are too rough.

Molecular target: Glucagon-like peptide 1 receptor (Homo sapiens) (UniProt P43220)
Test: qHTS of GLP-1 Receptor Inverse Agonists (Inhibition Mode); further: nearly all actives have a fitted effect of over 55% in size
Settings: HEK293 GLP-1R CRE-luciferase, luminescence, 24 h, GLP-1R form is constitutively active; activity change, negative = inhibition: at 38.3 µM (top of the series) unless noted
Procedure, shortened: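 HEK293 cells stably co-expressing a cAMP-responsive luciferase reporter and constitutively active GLP-1R were seeded, incubated 12 h, then exposed to compounds for 24 h at 37 C. Luminescence was read 12 min after detection reagent; inverse agonists lower signal.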
On the % scale 0 is the no-effect control and ±100 the full control effect; potency means the concentration at half of the fitted maximal effect; tags describe the fitted curve by direction and shape.

Sequence of UniProt P43220 (P43220 whole entry, looked up): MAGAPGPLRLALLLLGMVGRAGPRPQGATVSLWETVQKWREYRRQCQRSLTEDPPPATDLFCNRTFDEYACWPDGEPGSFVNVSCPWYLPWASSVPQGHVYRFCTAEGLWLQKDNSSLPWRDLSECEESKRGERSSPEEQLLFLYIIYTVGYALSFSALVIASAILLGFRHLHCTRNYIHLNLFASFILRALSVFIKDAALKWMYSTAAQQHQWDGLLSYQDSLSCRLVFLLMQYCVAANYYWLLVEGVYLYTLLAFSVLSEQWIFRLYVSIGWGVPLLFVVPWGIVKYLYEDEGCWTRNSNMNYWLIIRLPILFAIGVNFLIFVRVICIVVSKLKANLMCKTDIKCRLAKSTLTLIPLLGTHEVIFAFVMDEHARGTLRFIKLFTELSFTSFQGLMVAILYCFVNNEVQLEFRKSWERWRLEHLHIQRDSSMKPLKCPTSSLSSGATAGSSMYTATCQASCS

Row | Structure (SMILES) | Potency | activity change, negative = inhibition
1 | O=C(NCCCc1ccccc1)c1c(O)nc2sccn2c1=O | inconclusive [inhibitor, partial curve, poor fit] | 
2 | Cc1ccc(-c2nn(-c3ccccc3)cc2C(=O)NCC2CCCO2)cc1 (configuration not stated) | inconclusive [inhibitor, partial curve] | 
3 | Cc1cc2nn(-c3ccc(Cl)cc3)nc2cc1N | inconclusive [inhibitor, partial curve, poor fit] | 
4 | Cc1cc(Cl)ccc1OCc1n[nH]c(=S)n1C1CCCCC1 | inconclusive [inhibitor, single point] | 
5 | Cc1ccc(OCC(=O)N(Cc2cccc(Cl)c2)C2CCS(=O)(=O)C2)cc1C (configuration not stated) | inconclusive [inhibitor, partial curve, poor fit] | 
6 | CCn1c(SCC(=O)N2c3ccccc3CCc3ccccc32)nnc1-c1ccc(OC)cc1 | inconclusive [inhibitor, partial curve, poor fit] | 
7 | COc1ccc(NC(=O)c2ccc3c(c2)OCO3)cc1 | inconclusive [inhibitor, partial curve] | 
8 | COc1cccc(C2C=C(c3ccc(C)c(C)c3)Nc3nnnn32)c1OC (configuration not stated) | inconclusive [inhibitor, full curve, poor fit] | 
9 | Cc1ccc(-c2c(CN3CCN(c4cccc(C(F)(F)F)c4)CC3)csc2C)cc1 |  | inactive: 2.48%
10 | COc1ccc(C(=O)/C=C/c2ccc(OC3CSC3)cc2)cc1OC | inconclusive [inhibitor, single point] | 
11 | Cc1cc(C)c(S(=O)(=O)Nc2ccc3c(c2)CCC3)c(C)c1 | inconclusive [inhibitor, partial curve, poor fit] | 
12 | C=C1CC2(CC(c3ccccc3)OC(c3ccccc3)C2)OC1=O (configuration not stated) | inconclusive [inhibitor, partial curve, poor fit] | 
13 | O=C(c1cc(COc2ccc(F)cc2Cl)on1)N1CCN(C2CCCCC2)C(=O)C1 | active: 10 µM | 
14 | COc1ccc(CC(=O)Nc2cccc(-c3cn4ccccc4n3)c2)cc1 |  | inactive: -26.6%
15 | CCOc1ccccc1NC(=O)c1ccc(Cl)c(NC(=O)CC(c2ccccc2)c2ccccc2)c1 | inconclusive [inhibitor, single point] | 
16 | COc1cc(OC)c(OC)cc1/C=C1\CCC/C(=C\c2cc(OC)c(OC)cc2OC)C1=O | inconclusive [inhibitor, single point] | 
17 | COc1ccc(NC(=O)CN2CCN(c3c(C)cc(C)cc3C)CC2)cc1 | inconclusive [inhibitor, single point] | 
18 | COC(=O)C(C)(C)ONC(=O)Nc1ccccc1[N+](=O)[O-] |  | inactive: 8.62%
19 | CC(C)c1ccc(NC(=O)CN2C(=O)NC(C)(C3CC3)C2=O)cc1 (configuration not stated) | inconclusive [inhibitor, partial curve] | 
20 | COc1ccc(C(CNC(=O)c2ccc(S(=O)(=O)Nc3ccccc3OC)cc2)N2CCCC2)cc1 (configuration not stated) | inconclusive [inhibitor, single point] | 
21 | COC(=O)C1=C(C)N(C)C(=O)/C1=C\c1ccco1 |  | inactive: 32.9%

Row | Structure (SMILES) | Potency | activity change, negative = inhibition
22 | O=C(Nc1ccc(Cl)c(S(=O)(=O)N2CCCCC2)c1)c1ccco1 | inconclusive [inhibitor, single point] | 
23 | COc1ccc(Cc2c(-c3cccc(Br)c3)nc3cc(C)c(Br)c(C)n23)c(C)c1 | inconclusive [inhibitor, partial curve, poor fit] | 
24 | Cc1ccc(CSCC(=O)N2CCN(c3ccccc3)CC2)cc1 | inconclusive [inhibitor, single point] | 
25 | Cc1cc2ccccn2c1C(=O)c1cccc([N+](=O)[O-])c1 | inconclusive [inhibitor, single point] | 
26 | COc1ccc(CN2C(=O)C(O)(CC(=O)c3ccc4c(c3)OCO4)c3ccccc32)cc1OC (configuration not stated) |  | inactive: 1.54%
27 | c1ccc(COc2ccc(OCCCN3CCCCC3)cc2)cc1 | inconclusive [inhibitor, single point] | 
28 | Cc1cccc(S(=O)(=O)NC(=O)C2(C)CCN2C(=O)C2(c3ccc(Cl)cc3)CCC2)c1 (configuration not stated) | inconclusive [inhibitor, partial curve, poor fit] | 
29 | CC1(NC(=O)CC(c2ccccc2)(c2ccccc2)c2ccccc2)CCN(Cc2ccc(-c3ccccc3)cc2)C1=O (configuration not stated) | inconclusive [inhibitor, full curve, poor fit] | 
30 | CN1C(C(=O)c2ccccc2)=C(OC(=O)c2ccc(Br)cc2)c2ccccc2S1(=O)=O | inconclusive [inhibitor, partial curve, poor fit] | 
31 | Cc1ccc(NS(=O)(=O)c2cc(C(=O)N3CCc4ccccc4C3)ccc2Cl)cc1 | inconclusive [inhibitor, single point] | 
32 | COCCNc1nc(Nc2ccc(C)cc2C)c2sccc2n1 | inconclusive [inhibitor, full curve] | 
33 | S=C(Nc1ccc(Br)cc1)Nc1ccc2c(c1)OCCO2 | inconclusive [inhibitor, single point] | 
34 | CCCOC1(C(F)(F)F)NC(=O)N(c2ccc(Cl)cc2)C1=O (configuration not stated) | inconclusive [inhibitor, single point] | 
35 | Cc1cc(C)c(NC(=O)CSc2nc(=O)[nH]c3c2CCCC3)c(C)c1 |  | inactive: 7.06%
36 | CS(=O)(=O)N(CC(=O)Nc1ccccc1-c1ccccc1)c1cccc(F)c1 | inconclusive [inhibitor, partial curve] | 
37 | Cc1nc(N)nc(N)c1CCCc1ccc(Cl)c(Cl)c1 | active: 7.08 µM | 
38 | Cc1[nH]c2c(Cl)cccc2c1CCNC(=O)C1CCCCC1C(=O)OCC(F)(F)F (configuration not stated) | inconclusive [inhibitor, single point] | 
39 | Cc1ccc2c(c1)N(C(=O)CCC(=O)Nc1ccccc1Br)CC(C)O2 (configuration not stated) | inconclusive [inhibitor, partial curve, poor fit] | 
40 | CCCCc1nc(N2CCOCC2)c(C#N)c2c1CCCC2 | inconclusive [inhibitor, single point] | 
41 | Cc1cccc(NC(=S)N/N=C/c2cccc([N+](=O)[O-])c2)c1 | inconclusive [inhibitor, full curve, poor fit] | 
42 | CCOC(=O)c1c(NC(=O)CN2CCCc3ccccc32)sc(C)c1C | inconclusive [inhibitor, partial curve, poor fit] | 

Row | Structure (SMILES) | Potency | activity change, negative = inhibition
43 | CC(=O)c1cc2c(cc1NS(=O)(=O)c1ccccc1Br)OCO2 | inconclusive [inhibitor, single point] | 
44 | Cc1cccc(NC(=O)c2c(C)oc3ncn(CC(C)C)c(=O)c23)n1 | inconclusive [inhibitor, full curve, poor fit] | 
45 | COc1cccc(C(=O)Nc2ccc(N3CCCC3)cc2)c1 | inconclusive [inhibitor, single point] | 
46 | CN(C)Cc1ncccc1Oc1nc2cc(-c3cccc(Cl)c3)sc2c(=O)n1C | inconclusive [inhibitor, single point] | 
47 | C=CCn1c(-c2cccc(Cl)c2)n[nH]c1=S | inconclusive [inhibitor, single point] | 
48 | CC(C)(C)c1ccc(SC2=C[C@@]3(O)CC[C@@H](O)[C@@](Sc4ccc(C(C)(C)C)cc4)(C2=O)[C@H]3O)cc1 | inconclusive [inhibitor, full curve] | 
49 | Cc1ccsc1C(=O)C1CCCN(Cc2cccn2-c2ccc(Cl)cn2)C1 (configuration not stated) | inconclusive [inhibitor, partial curve, poor fit] | 
50 | Cc1ccc(C)c(NC(=S)NCCc2ccc(F)cc2)c1 | inconclusive [inhibitor, partial curve, poor fit] | 
51 | Cc1nc2c(C(=O)NCc3ccccc3)c[nH]n2c(=O)c1Cc1ccccc1Cl | inconclusive [inhibitor, partial curve] | 
52 | c1ccc(-c2nnsc2-c2ncc[nH]2)cc1 |  | inactive: 11.3%
53 | O=C(CN1C2=NCCCN2c2ccccc21)c1cccc(Br)c1 | inconclusive [inhibitor, single point] | 
54 | CCC(=O)NC(c1ccccc1)c1c(OC(C)=O)ccc2ccccc12 (configuration not stated) | inconclusive [inhibitor, partial curve, poor fit] | 
55 | Cc1cccc2cc(C#N)c(SCC(=O)N3CC(=O)Nc4ccccc43)nc12 | inconclusive [inhibitor, full curve, poor fit] | 
56 | Cc1ccc(-n2ncc3c(N4CCCC(C)C4)ncnc32)c(C)c1 (configuration not stated) | inconclusive [inhibitor, single point] | 
57 | CCN1CCN(c2cc(C)c3cc(NC(=S)N4CCCCC4)ccc3n2)CC1 | inconclusive [inhibitor, partial curve, poor fit] | 
58 | Cc1ccc(CNC(=O)c2ccc(Cn3nc(C)c(Cl)c3C)o2)cc1 | inconclusive [inhibitor, single point] | 
59 | Cc1cc(N2CCCCC2)nc2ccc(NC(=O)c3cccc(Cl)c3)cc12 | inconclusive [inhibitor, partial curve, poor fit] | 
60 | CCC(=C(c1ccc(OC)cc1)c1ccc(OC)cc1)c1cn(CC(O)CN(CCO)CCO)c2ccccc12 (configuration not stated) | inconclusive [inhibitor, partial curve, poor fit] | 
61 | Cc1cccc(C(=O)Nc2nc(C)c(C(=O)Nc3ccc4c(c3)CCC4)s2)c1 |  | inactive: -56.3%
62 | COc1cccc(CNC(=O)c2cc3c(s2)-c2ccccc2OC3)c1 | inconclusive [inhibitor, single point] | 
